Data published in PubChem BioAssay AID1918993 (Molecular Pharmacology Branch, DTP, NCI, 2023).
Not every entry of the source has a single result; some have several. They are shown here; other results are not. An entry can have further records. The values listed for one entry are repeated measurements (runs, samples, wells, individuals or studies). Counts like (3×) count equal records among those shown.

Test system: 233499-124-R-J3-PDC complex spheroid growth
Experiment: Anticancer human tumor 233499-124-R-J3-PDC patient-derived colon adenocarcinoma cell line growth inhibition [AhR]
Details: for viability, T/C: stronger effect = lower value
Excerpt: Multicellular complex tumor spheroid response to aryl hydrocarbon receptor antagonists in combination with a variety of drugs and investigational agents in selected tumor cell lines
The current study was undertaken to assess response to aryl hydrocarbon receptor antagonists in combination with standard-of-care drugs and investigational agents in solid tumor complex spheroid models. Complex spheroids include a stromal component modeled by human endothelial cells (HUVEC) and fibroblasts modeled by human mesenchymal stem cells (MSCs). The concentration ranges selected for each drug and investigational agent were based upon clinically achievable concentrations if the clinical Cmax of the agent was known.
Compounds. The drugs and investigational agents: BAY 2416964 (NSC825713), GNF351 (NSC835774), CH-223191 (NSC835775), CPI-455 (NSC825282), aza-TdCyd (NSC777586), decitabine (NSC127716), belinostat (NSC758774), entinostat (NSC756642), pevonedistat (NSC761192), tazemetostat (NSC777109), talazoparib (NSC765396), olaparib (NSC753686), selinexor (NSC780203), nedisertib (M3814, NSC802822), bortezomib (NSC756655), venetoclax (NSC766270), doxorubicin (NSC123127), elimusertib (BAY189344, NSC800525), ceralasertib (AZD6738, NSC777638), TAK-243 (NSC785004), alisertib (NSC759677), etoposide (NSC141540), topotecan (NSC609699), eribulin (NSC707389), gemcitabine (NSC613327), carboplatin (NSC241240), cisplatin (NSC119875), and SN-38 (NSC673596) were obtained from the National Cancer Institute (NCI) Developmental Therapeutics Program Chemical Repository (32). The FDA-approved anticancer drug set is available from the Developmental Therapeutics Program at https://dtp.cancer.gov/organization/dscb/obtaining/available plates.htm. […] The stock solutions were prepared in dimethyl sulfoxide (DMSO, Sigma-Aldrich, St. Louis, MO, cat. D2650), except for the platinum compounds which were prepared in saline (Quality Biological, Gaithersburg, MD, cat. 114-055-101), at 800-fold the tested concentration and stored at -70 degrees C prior to their use. All drugs and investigational agents were tested over a range starting from a high concentration at or near the clinical Cmax and decreasing in half-log increments. If the clinical Cmax for an agent had not been determined, the highest concentration tested was 10 microM (Table 1).
Cell Culture. All cells were maintained in an incubator at 37 degrees C and 5% CO2 with 95% humidity. The PDC lines were cultured according to standard operating procedures established by the NCI PDMR (https://pdmr.cancer.gov). Briefly, all PDCs were thawed and cultured in Matrigel-coated flasks prepared with a working solution of 1X Ham's F-12 nutrient mix, without supplementation (Invitrogen, Waltham, MA, cat. 11765054), 100 U/mL penicillin-streptomycin (Invitrogen, cat. 15140122), and 2.5% Matrigel (Corning Inc., Corning, NY, cat. 354248) for the first three passages. All PDCs were cultured in complete DMEM/F-12 media containing advanced DMEM/F-12 (Invitrogen, cat. 12634028), 4.9% defined fetal bovine serum, heat inactivated (HyClone Laboratories Inc., Logan, UT, cat. SH30070.03HI), 389 ng/mL hydrocortisone (Sigma-Aldrich, cat. H4001), 9.7 ng/mL human EGF recombinant protein (Invitrogen, cat. PHG0313), 23.4 microg/mL adenine (Sigma-Aldrich, cat. A2786), 97.3 U/mL penicillin-streptomycin (Invitrogen, cat. 15140122), 1.9 mM L-glutamine (Invitrogen, cat. 25030081), and 9.7 microM Y-27632 dihydrochloride (Tocris Bioscience, Bristol, United Kingdom, cat. 1254). The PDCs were cultured in complete DMEM/F12 media without 10 microM Y-27632 dihydrochloride for at least two passages prior to the screen. The established cell lines NCI-H1341 and […] were cultured in DMEM/F-12, HEPES (Invitrogen, cat. 11330032), 5% defined fetal bovine serum (HyClone Laboratories Inc., cat. SH30070.03), ITS premix universal culture supplement [insulin (5 microg/mL), transferrin (5 microg/mL), and selenious acid (5 ng/mL)] […]
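Also: spheroids exposed to agents for seven days before reading.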

Row | IC50 (compound alone) | Compound | viability, T/C (compound alone 0.316 µM) | viability, T/C (compound alone 1 µM) | viability, T/C (compound alone 3.16 µM) | viability, T/C (compound alone 0.1 µM) | viability, T/C (compound alone 10 µM)
1 | 310 nM, 3.01 µM, > 10 µM | Nc1ccn(C2OC(CO)C(O)C2(F)F)c(=O)n1 (centres undefined) | – | – | – | – | –
2 | – | Cc1ccccc1N=Nc1ccc(NC(=O)c2ccnn2C)c(C)c1 | 99.6, 99.3, 93.8 (2×), 106 (2×), 90.5, 85.4, 102 (2×), 110, 104 (2×), 103, 90.8, 95.5, 85 (2×), 89.5, 81.5% | 92.2, 104, 91.3 (2×), 110, 102 (3×), 96.5, 94.9, 96.4, 103 (2×), 90.3, 107, 109, 105, 119, 100, 96.6% | 84 (2×), 96.3, 96, 110, 96.5, 113, 101, 109, 111, 112, 94.6, 107, 97.1, 102, 104, 97.9, 93.4, 100, 92.8% | – | –
3 | – | CC(CO)NC(=O)c1cc(-c2ccc(Cl)cc2)nn(-c2cnn(C)c2)c1=O (centres undefined) | – | 97.1, 107, 91.7, 84.5 (2×), 86.7 (2×), 98.6, 99.8, 86, 86.8, 83.5, 80.2, 99.2, 106, 94.6, 95.7, 93.6, 86.3, 82.3, 81.2% | – | 96.1, 110, 99, 95.9, 83.6, 90.7, 97.9, 106, 92.4, 91.8, 85.8, 96.5, 81.3, 104, 101 (2×), 94.9, 98.3, 95.1, 102% | 87.9, 92, 87.2, 82.3, 83.7, 85.5, 94.1, 84.1, 83.3, 85, 91.1, 74.7, 89.3, 86, 98.3, 90.8, 88.7, 69, 92.2%
4 | – | Cc1cncc(-c2nc(NCCc3c[nH]c4ccccc34)c3ncn(C(C)C)c3n2)c1 | – | – | 77.5, 84.5, 86.8, 78.7, 64.9, 74.7, 83.4, 82.4, 71.7, 71.5, 65.7, 82.9, 91.5, 66.8, 73.9, 79.8, 101, 75.6, 91.3, 81% | – | 11.4, 11.3, 5.73, 7.48, 39.5, 8.68, 6.44, 10.3, 10.5, 7.69, 13.9, 17.9, 15, 7.32, 6.31, 20.1, 14.9, 6.01, 9.6, 12.2, 4.37%
